# Some of the results follow.
# Test system: PF3D7_0420300 AP2 domain 1 (GST-tagged)
# Experiment: gcPBM binding intensity (ln(normalized median fluorescence intensity)); higher = stronger DNA binding
# Outline: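 Alexa488 anti-GST antibody, scanned at 488 nm, detected GST-tagged P. falciparum DNA-binding domains that had been expressed in E. coli and incubated for 1 h on an Agilent 4 × 180k array. The array carried primer-extended double-stranded 36-bp intergenic genomic probes and negative controls. Binding intensity is the highest Masliner-normalised natural-log median intensity across replicate spots of either orientation of each probe.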
row,Sequence,gcPBM binding intensity (ln)
1,CTTTTATATGTCTAATGTACGGGCAATATAAATTTG [XGTACX_site8323],9.11
2,ACACATTATAAAACTGTCGCTCATAAAGAAGAATGA [CACACA_negctrl_site999],9.35
3,GCAACAAAAAATCAGACATGCATTTTAAAATGAATA [TGCATGCA_site846],9.14
4,CATATTGAATATTTAACACACATTTCGCTTAATTCA [CACACA_site2086],9.48
5,TTATATATAAAATACTGTACATTTAATTGATGGTTT [XGTACX_site2073],9.29
6,TATAAAAAAAAAATTTGTACATAATAATATATATAT [XGTACX_site2074],9
7,GAATGAATTGTTATTAGTACACATGTGAATTATAAA [XGTACX_site6790],9.12
8,AAAAAGCAGGATTATACACACAAATATATATATGTT [CACACA_site1077],9.66
9,TATATAAATTTAATAACACACATATAAAAATGAATT [CACACA_site2366],9.47
10,AACTTGTATATATACACACACACACTATCTTTTTTT [CACACA_site8601],10.2
11,TTTTATAATAAGTATGTAAAAATTATATATATATAT [CACACA_negctrl_site711],8.99
12,ATATGTTTACGTAAATGTACACGTCAGTATATTTCT [XGTACX_site8199],9.39
13,ATATATATATAACATTGTACACACAAAGAAATAATA [XGTACX_site6440],9.67
14,ACAGGAGTATAACCTCGTACAAAATATATTTACCAT [XGTACX_site5805],9.38
15,CCTAGAAAAGCATATACACACGCGCAAAATAAAATT [CACACA_site4902],9.64
16,TCTTTAAAAAAAAAAAAAAAAAATTCCAAATAAATA [TGCATGCA_negctrl_site538],8.71
17,TAAAAATAAAGAAAATGTACATAAATAAAAATAAAG [XGTACX_site2279],9.56
18,TATATATATACATAATGTACAAGAATTTGTATTGAA [XGTACX_site627],9.26
19,CGACAAAAATTTTACAGTACAGTATAAACCTTTTTA [XGTACX_site290],8.94
20,TTTTTCACATTTCAGTGTACATTTTAATCATATATA [XGTACX_site915],9.3
21,AAAAAAAAAAAAAAAAAAATATATTATATATATATA [XGTACX_negctrl_site467],8.93
22,ATTTTTTTTTTTTTTTTAAGACAAACTCTTAATTTA [CACACA_negctrl_site1389],8.83
23,ATTCCAAAAAAATCAAGTACTAATTTATTATATTAC [XGTACX_site3920],9.1

row,Sequence,gcPBM binding intensity (ln)
1,TATTTTTTTAAGTGCAGTACACTTAATTTCCCCCAA [XGTACX_site7328],8.95
2,TCAAAAAATATATTTGCACACTCAAAAAAAAAAAAA [CACACA_site860],9.01
3,TACACACATTACAGATGTACATAAAATTAAAAAAAT [XGTACX_site1804],9.54
4,TATATATATATAAATACATGCATATAATTAATCCAT [TGCATGCA_site400],9.25
5,ATATTGTAGATATTGTGTACATATTTTACAACTTTT [XGTACX_site7621],9.3
6,TATGTACACCCATATACACACCTCTATAATATATAT [CACACA_site4563],9.67
7,ACATCATATTAAGAAAGTACAAAAAGAGAACATATA [XGTACX_site1268],9.73
8,GGATTTATTATATATACACACATACAGATATATATA [CACACA_site5222],9.53
9,TAAAAAAATAAATATACACACATATATATATATATA [CACACA_site1089],9.4
10,TGTAGAAATGGGTGCACACACATATAAAATCTATAT [CACACA_site7224],9.66
11,TCATTAAAAACTAAAAGTACTCAATATTATGAACAT [XGTACX_site7807],9.23
12,CATATATATTTGTTCACACACACACTAGAAAAAAAA [CACACA_site5380],9.97
13,ATAAAAAATAAAATAAATAAAAAATATTTACCCTTA [TGCATGCA_negctrl_site396],9.04
14,TCAAATAATAAGTATGCATGCTATATTTATATATAC [TGCATGCA_site920],9.18
15,TACATTTTACTTGTTACACACATATAAAATTAACCA [CACACA_site2922],9.47
16,AAACGTACATAATACACACACATGTATACCTATAAA [CACACA_site7051],9.89
17,AGTTAATGAATAGGCACACATATATCTGTATAAATA [CACACA_site4448],9.47
18,AGAAAAAAAAAAAGTACACACATATAATATATATAT [CACACA_site2973],9.75
19,TTGTTCGATATATGCACACAGTTTTGTTATTTTTCC [CACACA_site4972],9.7
20,ATGAATAAATAGGTCACACACAAATATATATAAATA [CACACA_site2416],9.91
21,CACTACACTGTTAATAGTACATATATTTAAAAAAAA [XGTACX_site7371],9.08
22,AAAAAAAACGGACACACACACATAAATATATATAAA [CACACA_site4260],10.3
23,AAAAGGTATAGAAACACACACACGTGAATATAGTTT [CACACA_site1905],9.88

row,Sequence,gcPBM binding intensity (ln)
1,CACACCCACCAACACACACACAAAAAAAAAAAGAAA [CACACA_site500],9.59
2,ATATTTTATTTTAATACACACAAGTTATATAATCAC [CACACA_site780],9.5
3,AAAAAAAAAAAAAGTGCACACATAAAAATATGATCT [CACACA_site8090],9.55
4,TACAAATTTATATAAAGTACAAAAAATAATAAAAAT [XGTACX_site7355],9.46
5,ACATATGTTTTATGTAGTACTTATTTATTATTATAT [XGTACX_site7528],9.51
6,TACTTATTGTGATACTTATATTATTTTATGATTAAA [XGTACX_negctrl_site353],9.23
7,TATATTTATTTATATACACACATAATAAAAAATATA [CACACA_site6527],9.4
8,TATTAATGATAAAAAAGTACATTATTATATGATATT [XGTACX_site4235],9.11
9,TTTTTTTTTTTTTTTTCACACATTGTACTTTTTTAT [CACACA_site5193],9.17
10,TAAGTCATATAAATGTGTACATAAAAAAAAAAAATG [XGTACX_site1645],9.32
11,TCTATCAAATTTGAAGGTACACATTTGAGATAATTA [XGTACX_site3797],8.98
12,ATCATTTGCATACGCACACACACATAAAAAGAAAAA [CACACA_site355],9.75
13,ATTATACAAATTGAGGTGCATGAAACAAAATATGAA,9.47
14,ATATTTTTTTTTTTATGTACTTATTTATAATTATTT [XGTACX_site5279],9.49
15,AGCTTGTAACAGTTTACACACTAATATTTATAAATT [CACACA_site6024],9.46
16,CTTATAAGAATACTAGTGCACATAATTTAACGAAAA,9.28
17,AATATGTGTATAGATAGTACACATGCTGATAATATA [XGTACX_site5941],9.42
18,AAAATTTTGGAACGTGCACACATATGTAATATATAT [CACACA_site9004],9.66
19,TTTTTAAAATATTTAACACACAATTATAATGCATAA [CACACA_site3932],9.14
20,AGTAGTCTGGAGAAATGTACACAGTATCTGGTAGCT [XGTACX_site4871],9.28
21,AATAATAAATAAATGTGTACTTAAAAATATTATATT [XGTACX_site3005],9.35
22,TTGTATCATATATTATGTACATATTGATTTATTACC [XGTACX_site12],9.25
23,CAAAGTATTATGATTACACACATGTGCTTTTTTCTT [CACACA_site163],9.65

row,Sequence,gcPBM binding intensity (ln)
1,ATGTCCTATATTAGTACACACATGAAAATATAAATA [CACACA_site7497],9.35
2,TTATTGTTATTTGTTTGTACATAATATAATATATTA [XGTACX_site6477],9.33
3,ACAATTAATCAAACAAGTACAAAATATATCCCTATT [XGTACX_site6223],9.66
4,TCCTATGATGATGATAGTACATATGAGTTCAAAAAA [XGTACX_site273],8.9
5,AATATAAAAAAAAACAAAAAAAAAATTTTGGTTCAC [CACACA_negctrl_site1290],9.18
6,AACCATACACAAATAAACATAGACACAGATACCTCC [CACACA_negctrl_site598],9.81
7,AAAAAAAAAAAAAAAGGTACACAAAACGGTATTATT [XGTACX_site7064],9.6
8,ATACATATTAATATGTGTACACATTTTTATTTTTTT [XGTACX_site930],9.35
9,AACTCATAGGAGTGTGCACACAAAAAATTAAAAAAA [CACACA_site8996],9.64
10,TTTTTTTTTTTTGTCACACATATGGAATATATCTAT [CACACA_site5899],9.26
11,CTCAAAAAATATGAACGTACAAAATAAGTAATGACA [XGTACX_site590],9.51
12,TTTTTTTTTTTTTTTGCACACATTTTAATTATTTTT [CACACA_site341],9.37
13,TTTTAAAAAAGAAAAAAAAAGGATCAGAGAAATATT [GTGCAC_negctrl_site79],9.31
14,TTATATTTATTTAATGAACACACGATATATTATTTT [CACACA_site1601],9.19
15,AAATGTTAATTAAATGCATGTACAAAAGGAGCGAAT [TGCATGCA_site942],10.1
16,AAAAAAATTAATAATGTGCACTTTTTAGTATTTTTA [GTGCAC_site9744],9.03
17,TTGTAGATATTTATATGTACGAATTTATAAATATAG [XGTACX_site3611],8.97
18,TTTGTCAACCAAAATTGTACAAATGTATTCCCAATA [XGTACX_site1350],9.01
19,TTATTTATCAAAAAATGTACAAAAATATATAAACAA [XGTACX_site940],9.19
20,CTTTTCTATTTTTTCGTGCACTATAAATATTTTAAT,9.42
